# Experimental data reported in the supplement of paper PMC8728848.
# This is one part of the list.
# Legend:
# Assay in all cases: glycan array binding signal (z-score within array); higher = stronger binding
# Details in all cases: glycan notation: IUPAC condensed, linker removed
# [1] = target: Neu5Ac(a2-6)Gal(b1-4)GlcNAc(b1-2)Man(a1-3)[Man(a1-6)]Man(b1-4)GlcNAc(b1-4)GlcNAc
# Method in brief: (§1)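 The binding signal is a Z-score computed within each array. Data were drawn from 3228 arrays in the Consortium for Functional Glycomics database, restricted to those with a known protein sequence. Scores were averaged over arrays of the same protein sequence at different concentrations or buffers, and over linkers, and negative values can be taken as non-binding.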
# [2] = target: Neu5Ac(a2-6)Gal(b1-4)GlcNAc(b1-2)Man(a1-3)[Neu5Ac(a2-3)Gal(b1-4)GlcNAc(b1-2)Man(a1-6)]Man(b1-4)GlcNAc(b1-4)GlcNAc
# Method in brief: as §1
# [3] = target: Neu5Ac(a2-6)Gal(b1-4)GlcNAc(b1-2)Man(a1-3)[Neu5Ac(a2-6)Gal(b1-4)GlcNAc(b1-2)Man(a1-6)]Man(b1-4)GlcNAc(b1-4)GlcNAc
# Method in brief: as §1
# [4] = target: Neu5Ac(a2-6)Gal(b1-4)GlcNAc(b1-2)Man(a1-3)[Neu5Ac(a2-6)Gal(b1-4)GlcNAc(b1-2)Man(a1-6)]Man(b1-4)GlcNAc(b1-4)[Fuc(a1-6)]GlcNAc
# Method in brief: as §1
# [5] = target: Neu5Ac(a2-6)Gal(b1-4)GlcNAc(b1-2)Man(a1-6)Man(b1-4)GlcNAc(b1-4)GlcNAc
# Method in brief: as §1
# [6] = target: Neu5Ac(a2-6)Gal(b1-4)GlcNAc(b1-2)Man(a1-6)[Gal(b1-4)GlcNAc(b1-2)Man(a1-3)]Man(b1-4)GlcNAc(b1-4)GlcNAc
# Method in brief: as §1
# [7] = target: Neu5Ac(a2-6)Gal(b1-4)GlcNAc(b1-2)Man(a1-6)[GlcNAc(b1-2)Man(a1-3)]Man(b1-4)GlcNAc(b1-4)GlcNAc
# Method in brief: as §1
# [8] = target: Neu5Ac(a2-6)Gal(b1-4)GlcNAc(b1-2)Man(a1-6)[Man(a1-3)]Man(b1-4)GlcNAc(b1-4)GlcNAc
# Method in brief: as §1
# [9] = target: Neu5Ac(a2-6)Gal(b1-4)GlcNAc(b1-2)[Neu5Ac(a2-6)Gal(b1-4)GlcNAc(b1-4)]Man(a1-3)[GlcNAc(b1-4)][Neu5Ac(a2-6)Gal(b1-4)GlcNAc(b1-2)[Neu5Ac(a2-6)Gal(b1-4)GlcNAc(b1-6)]Man(a1-6)]Man(b1-4)GlcNAc(b1-4)GlcNAc
# Method in brief: as §1
# [10] = target: Neu5Ac(a2-6)Gal(b1-4)GlcNAc(b1-2)[Neu5Ac(a2-6)Gal(b1-4)GlcNAc(b1-4)]Man(a1-3)[GlcNAc(b1-4)][Neu5Ac(a2-6)Gal(b1-4)GlcNAc(b1-4)Man(a1-6)]Man(b1-4)GlcNAc(b1-4)GlcNAc
# Method in brief: as §1
# [11] = target: Neu5Ac(a2-6)Gal(b1-4)GlcNAc(b1-2)[Neu5Ac(a2-6)Gal(b1-4)GlcNAc(b1-6)]Man(a1-6)[Neu5Ac(a2-6)Gal(b1-4)GlcNAc(b1-2)Man(a1-3)][GlcNAc(b1-4)]Man(b1-4)GlcNAc(b1-4)GlcNAc
# Method in brief: as §1
# [12] = target: Neu5Ac(a2-6)Gal(b1-4)GlcNAc(b1-3)Gal(b1-3)GlcNAc
# Method in brief: as §1
# [13] = target: Neu5Ac(a2-6)Gal(b1-4)GlcNAc(b1-3)Gal(b1-4)GlcNAc
# Method in brief: as §1
# [14] = target: Neu5Ac(a2-6)Gal(b1-4)GlcNAc(b1-3)Gal(b1-4)GlcNAc(b1-2)Man(a1-3)[Neu5Ac(a2-6)Gal(b1-4)GlcNAc(b1-3)Gal(b1-4)GlcNAc(b1-2)Man(a1-6)]GalNAc
# Method in brief: as §1
# [15] = target: Neu5Ac(a2-6)Gal(b1-4)GlcNAc(b1-3)Gal(b1-4)GlcNAc(b1-3)Gal(b1-4)GlcNAc
# Method in brief: as §1
# [16] = target: Neu5Ac(a2-6)Gal(b1-4)GlcNAc(b1-3)Gal(b1-4)GlcNAc(b1-3)Gal(b1-4)GlcNAc(b1-2)Man(a1-3)[Neu5Ac(a2-6)Gal(b1-4)GlcNAc(b1-3)Gal(b1-4)GlcNAc(b1-3)Gal(b1-4)GlcNAc(b1-2)Man(a1-6)]GalNAc
# Method in brief: as §1
# [17] = target: Neu5Ac(a2-6)Gal(b1-4)GlcNAc(b1-3)Gal(b1-4)GlcNAc(b1-3)GalNAc
# Method in brief: as §1
# [18] = target: Neu5Ac(a2-6)Gal(b1-4)GlcNAc(b1-3)Gal(b1-4)GlcNAc(b1-3)[Neu5Ac(a2-6)Gal(b1-4)GlcNAc(b1-3)Gal(b1-4)GlcNAc(b1-6)]GalNAc
# Method in brief: as §1
# [19] = target: Neu5Ac(a2-6)Gal(b1-4)GlcNAc(b1-3)Gal(b1-4)GlcNAc(b1-6)[Gal(b1-3)]GalNAc
# Method in brief: as §1
# [20] = target: Neu5Ac(a2-6)Gal(b1-4)GlcNAc(b1-3)Gal(b1-4)[Fuc(a1-3)]GlcNAc(b1-3)Gal(b1-4)[Fuc(a1-3)]GlcNAc
# Method in brief: as §1
# [21] = target: Neu5Ac(a2-6)Gal(b1-4)GlcNAc(b1-3)GalNAc
# Method in brief: as §1
# [22] = target: Neu5Ac(a2-6)Gal(b1-4)GlcNAc(b1-3)[Neu5Ac(a2-6)Gal(b1-4)GlcNAc(b1-6)]GalNAc
# Method in brief: as §1
# [23] = target: Neu5Ac(a2-6)Gal(b1-4)GlcNAc(b1-6)GalNAc
# Method in brief: as §1
# [24] = target: Neu5Ac(a2-6)Gal(b1-4)GlcNAc(b1-6)[Gal(b1-3)GlcNAc(b1-3)]Gal(b1-4)Glc
# Method in brief: as §1
# [25] = target: Neu5Ac(a2-6)Gal(b1-4)GlcNAc(b1-6)[Gal(b1-3)]GalNAc
# Method in brief: as §1
# [26] = target: Neu5Ac(a2-6)Gal(b1-4)GlcNAc6S
# Method in brief: as §1
# [27] = target: Neu5Ac(a2-6)GalNAc
# Method in brief: as §1
# [28] = target: Neu5Ac(a2-6)GalNAc(b1-4)GlcNAc
# Method in brief: as §1
# [29] = target: Neu5Ac(a2-6)GalNAc(b1-4)GlcNAc6S
# Method in brief: as §1
# [30] = target: Neu5Ac(a2-6)GlcNAc(b1-4)GlcNAc
# Method in brief: as §1
# [31] = target: Neu5Ac(a2-6)GlcNAc(b1-4)GlcNAc(b1-4)GlcNAc
# Method in brief: as §1
binder,measurement,setting,value
"SSP1 (Sclerotinia sclerotiorum), XP_001584968 (protein) MGSSHHHHHHSSGLVPRGSHMSLLTTELACTSAPDQVLHLFFQDGQNILEARSPDGGNVWTTQDTIIAKDGDYNGSSMTCYYVDKDANFDNQPSIHLLYMNKDKQLTEKVKRMKGDNPIWEDAKVPDEVRKGPEQYSKLTSGSFNQGTGWNPNGSQWAYFSASKDGKMGIVEIRRTPKDPWHTETILEEKWGDELPGTALACVIGNGKIRVFLQHHDYSIILYENQNNTWHDRGTFIPKDKVQATTPLACTMTKDGSVHLFYVSKSNKIIHCTDGKKEEELINFFPGSKLGATSVENKITLFFRNLNPVNEVGTLENENGSWKHGTTVIPA",glycan array binding signal (z-score),[1],-0.15
same,glycan array binding signal (z-score),[2],-0.627
same,glycan array binding signal (z-score),[3],-0.043
same,glycan array binding signal (z-score),[4],-0.364
same,glycan array binding signal (z-score),[5],0.013
same,glycan array binding signal (z-score),[6],-0.632
same,glycan array binding signal (z-score),[7],-0.182
same,glycan array binding signal (z-score),[8],-0.095
same,glycan array binding signal (z-score),[9],0.132
same,glycan array binding signal (z-score),[10],-0.055
same,glycan array binding signal (z-score),[11],-0.141
same,glycan array binding signal (z-score),[12],-0.299
same,glycan array binding signal (z-score),[13],-0.052
same,glycan array binding signal (z-score),[14],0.252
same,glycan array binding signal (z-score),[15],-0.007
same,glycan array binding signal (z-score),[16],1.4
same,glycan array binding signal (z-score),[17],0.083
same,glycan array binding signal (z-score),[18],-0.099
same,glycan array binding signal (z-score),[19],0.091
same,glycan array binding signal (z-score),[20],1.3
same,glycan array binding signal (z-score),[21],0.16
same,glycan array binding signal (z-score),[22],-0.443
same,glycan array binding signal (z-score),[23],-0.386
same,glycan array binding signal (z-score),[24],-0.009
same,glycan array binding signal (z-score),[25],-0.481
same,glycan array binding signal (z-score),[26],0.093
same,glycan array binding signal (z-score),[27],-0.577
same,glycan array binding signal (z-score),[28],-0.579
same,glycan array binding signal (z-score),[29],0.268
same,glycan array binding signal (z-score),[30],0.231
same,glycan array binding signal (z-score),[31],0.346
